48 compounds from PubChem BioAssay AID1508642 (National Center for Advancing Translational Sciences (NCATS), 2021) can be followed below.

Structures are written as SMILES. In all, about 43,000 compounds went through this assay and about 200 (0.47%) were called active. Another 12% or so got no clear call; they are omitted. The call rests on the fitted dose curve; in most records, active means well fitted cell-killing curve with a large enough effect; inconclusive means small, poorly fitted or top-dose-only effect, or effect the other way; inactive means flat fitted curve, though single readings scatter. The list shows a part of the results.
On the % scale 0 is the no-effect control and ±100 the full control effect.

This assay can be described thus: Cell viability qHTS assay in S16 Pmp22-F2sN cells. Further: nearly all actives have a fitted effect of over 65% in size. To be noted: S16 Pmp22-F2sN Schwann cells (luciferase reporters placed in the Pmp22 gene) viability, CellTiter-Glo, 24 h; series mostly up to 57.5 µM; activity change, negative = cytotoxicity: at the top concentration. In outline: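 Luminescence from CellTiter-Glo, read by CCD camera after a 15 min room-temperature incubation, served as the viability signal. Reporter Schwann cells (S16 Pmp22-F2sN) had been treated with pin-transferred compounds for 24 h at 37C.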
On the technique in general: Quantitative high-throughput screening tests each substance at several concentrations.
In the case of `Cc1nn(-c2ccccc2)c(OC(=O)c2cccc(Br)c2)c1S(=O)(=O)c1ccccc1`, the “activity change, negative = cytotoxicity” value was inactive: 13.9%.

Regarding `COc1cc(CNC(=O)c2sc3ncccc3c2-n2cccc2)cc(OC)c1OC`, the “activity change, negative = cytotoxicity” value is inactive: -11.5%.

`COc1cccc(C2CC(=O)Nc3cc(OC)c(OC)c(OC)c32)c1OC(C)C` (stereo not drawn): the “activity change, negative = cytotoxicity” value was inactive: -2.46%.

Turning to `Cc1cccc(Cn2c(=O)n(CC3CCC(C(=O)NC(C)C)CC3)c(=O)c3sccc32)c1` (stereo not drawn), the “activity change, negative = cytotoxicity” value is inactive: 9.25%.

Turning to `CSc1ccc(CCNC(=O)C2=C(C)C(=O)OC23CCCCC3)cc1`, the “activity change, negative = cytotoxicity” value is inactive: 12.1%.

Regarding `Cc1cccc(N2CCN(C(=O)Cn3ncc4c3-c3cc(C)ccc3OC4)CC2C)c1` (stereo not drawn), the “activity change, negative = cytotoxicity” value was inactive: -1.93%.

As to `COC(=O)c1ccc(OCC2c3cc(OC)c(OC)cc3CCN2C(=O)c2ccccc2C)cc1` (stereo not drawn), the “activity change, negative = cytotoxicity” value is inactive: -1.92%.

With `Cc1nc(N2CCCC2)c2c(C(=O)N3CCN(c4ccc(F)cc4)CC3)c(C)oc2n1`, the “activity change, negative = cytotoxicity” value was inactive: 3.16%.

For `Cc1cc(C)c(NC(=O)CCN2C(=O)c3ccccc3Sc3ncccc32)c(C)c1`, the “activity change, negative = cytotoxicity” value is inactive: 0.484%.

Take `Cc1nc2cc(C(=O)NCCC3=CCCCC3)ccc2n1-c1ccc(Br)cc1`: the “activity change, negative = cytotoxicity” value is inactive: 5.92%.

In the case of `CCc1nn(CC(=O)NCC(C)c2ccccc2)c(=O)c2cc3occc3n12` (stereo not drawn), the “activity change, negative = cytotoxicity” value was inactive: -0.943%.

Take `CCOc1ccc(C(=O)NCc2nnnn2-c2ccc(C)c(C)c2)cc1OCC`: the “activity change, negative = cytotoxicity” value was inactive: 4.28%.

For the compound `CCOC(=O)CNC(=O)CSc1cn(CC(=O)N2CCCCCC2)c2ccccc12`, the “activity change, negative = cytotoxicity” value was inactive: 23.4%.

Regarding `CN(Cc1ccccc1)C(=O)C1CCN(S(=O)(=O)c2ccc3c(c2)oc(=O)n3C)CC1`, the “activity change, negative = cytotoxicity” value is inactive: 8.63%.

Consider `O=C1COc2ccc(-c3cc(-c4ccc(Cl)cc4)c4c(n3)-c3ccccc3OC4)cc2N1`, for which the “activity change, negative = cytotoxicity” value is inactive: 14.1%.

Consider `Cc1cccc(C(=O)Nc2nnc(S(=O)(=O)N(C)Cc3ccc(Cl)cc3)s2)c1`, for which the “activity change, negative = cytotoxicity” value is inactive: 2.56%.

For the compound `COC(=O)c1cc2c(cc1NC(=O)c1cnn(-c3ccccc3)c1-n1cccc1)OCO2`, the “activity change, negative = cytotoxicity” value was inactive: -0.0131%.

`CSc1nc(Nc2ccc(C)cc2C)cc(-c2ccccc2)n1`: the “activity change, negative = cytotoxicity” value was inactive: 12.6%.

Take `Cc1ccc2ncc(S(=O)(=O)c3ccccc3)c(N3CCCCC3C)c2c1` (stereo not drawn): the “activity change, negative = cytotoxicity” value is inactive: -20.3%.

In the case of `COc1ccc(C2=NC3(CCCCCC3)N(CC(=O)Nc3ccc(C)c(C)c3)C2=O)cc1`, the “activity change, negative = cytotoxicity” value was inactive: -20.5%.

In the case of `CCn1c(C)c(C)c2cc(C(=O)NCc3ccc(N(C)C)cc3)ccc21`, the “activity change, negative = cytotoxicity” value is inactive: 3.22%.

As to `COc1ccc(CNC(=O)CN(c2cc(C(F)(F)F)ccc2Cl)S(C)(=O)=O)cc1`, the “activity change, negative = cytotoxicity” value was inactive: 13.7%.

For the compound `Cc1ccc(C(=O)c2oc3ccccc3c2NC(=O)c2cc(-c3ccc(Cl)cc3)on2)cc1`, the “activity change, negative = cytotoxicity” value was inactive: -4.23%.

Turning to `COc1ccc(Cl)cc1NC(=O)Cn1ncc2c3ccccc3n(Cc3ccccc3)c2c1=O`, the “activity change, negative = cytotoxicity” value was inactive: 8.7%.

Turning to `CC(=O)c1cccc(NC(=O)c2sc(-n3nc(C)c(CCC(C)C)c3C)nc2C)c1`, the “activity change, negative = cytotoxicity” value is inactive: -25.7%.

As to `Cc1nc(-c2ccc(S(=O)(=O)N3CCN(c4cccc(Cl)c4)CC3)cc2)co1`, the “activity change, negative = cytotoxicity” value is inactive: 9.99%.

Consider `COc1cc(NC(=O)Cn2c(=O)n(CC(=O)NCCc3ccc(OC)c(OC)c3)c(=O)c3sccc32)cc(OC)c1`, for which the “activity change, negative = cytotoxicity” value is inactive: -3.59%.

On to `CSc1ccc(CNC(=O)Cc2csc3ccccc23)cc1`, for which the “activity change, negative = cytotoxicity” value is inactive: 8.01%.

Regarding `CC(=O)NCCNc1nc2c(-c3cccc(C)c3)nnn2c2ccc(Cl)cc12`, the “activity change, negative = cytotoxicity” value was inactive: 6.69%.

Turning to `COc1ccc(N2CC(NC(=O)Cc3cccs3)CC2=O)cc1` (stereo not drawn), the “activity change, negative = cytotoxicity” value was inactive: 0.126%.

In the case of `COc1cccc(Nc2sc(C(=O)c3ccc4c(c3)OCO4)c(N)c2S(=O)(=O)c2ccccc2)c1`, the “activity change, negative = cytotoxicity” value was inactive: 16.7%.

For `COc1ccc(-n2nnnc2C2CCN(S(=O)(=O)c3ccc(F)cc3Cl)CC2)cc1`, the “activity change, negative = cytotoxicity” value was inactive: 5.58%.

`CC(=O)Nc1ccc(S(=O)(=O)NCC2CCC(C(=O)NCc3ccccc3Cl)CC2)cc1` (stereo not drawn): the “activity change, negative = cytotoxicity” value was inactive: 1.14%.

For the compound `CCSc1nnc2c(n1)OC(c1ccc(OC)cc1OC)N(C(C)=O)c1ccccc1-2` (stereo not drawn), the “activity change, negative = cytotoxicity” value is inactive: 0.996%.

For `Cc1ccc(C2=NC(c3ccc(F)cc3)=Nc3ccc(C)cc3N2)cc1`, the “activity change, negative = cytotoxicity” value was inactive: -7.46%.

Consider `O=C(NC1CCCC1)c1cnn(-c2ccc(F)cc2F)c1C1CCNCC1`, for which the “activity change, negative = cytotoxicity” value was inactive: -5.7%.

Regarding `Cc1ccc(S(=O)(=O)N2CCN(Cc3ccccc3)CC2)c(C)c1NS(C)(=O)=O`, the “activity change, negative = cytotoxicity” value was inactive: -7.8%.

As for `COc1ccc(Cl)cc1NC(=O)CSc1nc2c([nH]c3ccccc32)c(=O)n1-c1ccccc1`, the “activity change, negative = cytotoxicity” value is inactive: 20.3%.

On to `Cc1cccc(Cn2c(=O)n(CCCCC(=O)NCc3ccc4c(c3)OCO4)c(=O)c3ccccc32)c1`, for which the “activity change, negative = cytotoxicity” value is inactive: -2.19%.

As for `CN(Cc1ccccc1)Cc1c(O)ccc2c(=O)c(-c3ccccc3)c(C(F)(F)F)oc12`, the “activity change, negative = cytotoxicity” value is inactive: -2.24%.

Consider `Cc1ccc(NC(=O)CN2c3ccccc3S(=O)(=O)c3ccccc32)cc1F`, for which the “activity change, negative = cytotoxicity” value was inactive: 19.9%.

As for `CCN(C(=O)c1sc2cc(OC)ccc2c1Cl)c1ccccc1`, the “activity change, negative = cytotoxicity” value was inactive: -18.2%.

As for `COc1ccccc1OCCCCn1c(C2CC(=O)N(c3ccccc3Cl)C2)nc2ccccc21` (stereo not drawn), the “activity change, negative = cytotoxicity” value was inactive: -5.88%.

Consider `Cc1ccc(NC(=O)/C(C#N)=C/c2ccccc2Cl)cc1C`, for which the “activity change, negative = cytotoxicity” value is inactive: -29.1%.

As to `CCN(CC)CCNC(=O)CN1C(=O)c2cccnc2Oc2ccc(C)cc21`, the “activity change, negative = cytotoxicity” value was inactive: -1.81%.

For `COc1ccc(CCNC(=O)Cn2c(=O)n(-c3ccc(OC)c(OC)c3)c(=O)c3ccccc32)cc1OC`, the “activity change, negative = cytotoxicity” value was inactive: -8.79%.

Regarding `O=C(NCc1ccc(F)cc1)C1CCN(S(=O)(=O)c2ccc3c(c2)CCCN3C(=O)C2CCC2)CC1`, the “activity change, negative = cytotoxicity” value is inactive: -14.2%.

With `CN(C)c1ccc(NC(=O)CSc2nc(-c3ccco3)cc(C(F)(F)F)n2)cc1`, the “activity change, negative = cytotoxicity” value was inactive: 12%.
